The values that follow come from the RNAGym collection of RNA variant scans (doi:10.1073/pnas.2313332121).

Variants at the background level are over-represented here.

To fix the notation:
B1: TPR 5TU (parent)
chain: GGAUCUUCUCGAUCUAACAAAAAAGACAAAUCUGCCACAAAGCUUGAGAGCAUCUUCGGAUGCAGAGGCGGCAGCCUUCGGUGGCGCGAUAGCGCCAACGUUCUCAACUAUGACACGCAAAACGCGUGCUCCGUUGAAUGGAGUUUAUCAUG

The variants in this data set derive from B1. Kind of data set: polymerase ribozyme fitness, log enrichment relative to wild type (log ratio); higher = more active; in vitro selection for triplet polymerase activity. In a few lines: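 Mutant libraries for each subunit of a heterodimeric triplet polymerase ribozyme were made by PCR and then transcribed. Each library underwent one round of in vitro selection in triplicate: annealing with a biotinylated primer, the partner subunit and triplets, frozen incubation at −7 °C, gel excision of extended constructs, streptavidin-bead capture and RT-PCR. Input and output libraries were Illumina-sequenced, and only genotypes with ≥10 input reads and ≥1 read per output were kept. Fitness is the logarithm, base 2, of genotype enrichment over wild-type enrichment, computed from inverse-variance-weighted replicate averages.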
For GGAUCUUCUCGAUCUAACAAAAAAGACAAAUCUGCCACAAAGCUUGAGAGCAUCUACGGAUGCAGAGGCGGCAGCCUUCGGUGGCGCGAUAGCGUGAACGUUCUCAACUGUGACACGCGAAACGCGUGCUCCGUUGAAUGGAGUUUAUCAUU [U56A C95U C96G A110G A119G G152U], the “polymerase ribozyme fitness (log ratio)” value was -4.13.

Turning to GGAUCUUCUCGAUCUAACAAAAAAGACAAAUCUGCCACAAAGCUUGAGAGCAUCUACAGAUGCAGAGGCGGCAGCCUUCGGUGGCGCCAUAGCGCCAACGUUCUCAACUAUGACACGCAAAACGCGUGCUCCGUUGAAUGGAGUUUAUCAUG [U56A G58A G88C], the “polymerase ribozyme fitness (log ratio)” value is -3.84.

Take GGAUCUUCUCGAUCUAACAAAAAAGACAAAUCUGCCACAAAGCUUGAGAGCAUCGUCGGAUGCAGAGGCGGCAGCCUUCGGUGGCGCGAUAGCGCCAACGUUCUCAACUAUGACACGCAAAACGCGCGCUCCGUUGAAUGGAGUUUAUCAUG [U55G U127C]: the “polymerase ribozyme fitness (log ratio)” value was -1.36.

On to GGAUCUUCUCGAUCUAACAAAAAAGACAAAUCUGCCACAAAGCUUGAGAGCAUCUACGGAUGCAGAGGCGGCAGCCUUAGGUGGCGCGAUAACGAGAACGUUCUCAACUAUGACACGCAAAACGCGUGCUCCGUUGAAUGGAGUUUAACAUG [U56A C79A G92A C95A C96G U148A], for which the “polymerase ribozyme fitness (log ratio)” value is ≤ -4.2.

Turning to GGAUCUUCUCGAUCUAACAAAAAAGACAAAUCUGCCACAAAGCUUGAGAGCAUCUAUGGAUGCAGAGGCAGCAGCCUUCGGUGGCGCGAUAUCGCCAACGUUGUCAACUAUGACACGCAAAACGCGUGCUCCGUUGAAUGGAGUUUAUCAUG [U56A C57U G70A G92U C103G], the “polymerase ribozyme fitness (log ratio)” value was ≤ -4.2.

As to GGAUCUUCUCGAUCUAACAAAAAAGACAAAUCUGCCACAAAGCUUGAGAGCAUCUACGGAUGCAGAGGCGGCAGCCUUCGGUGGAGCGAUAGCGCCAACGUGCUCAACUAUGACACGCAAAACGCGUGCUCCGUUGAAUGGAGUAUAUCAUG [U56A C85A U102G U145A], the “polymerase ribozyme fitness (log ratio)” value is ≤ -4.2.

As to GGAUCUUCUCGAUCUAACAAAAAAGACAAAUCUGCCACAAAGCUUGAGAGCAUCUACGGAUGCAGAGGCGGCAGCCUUCGGUGGCGGGAUAGCGCCAACGCUCUCAACUAUGACACGCAAAACGCGUGCUCCGUUGAAUGGAGUUUCUCAUG [U56A C87G U101C A147C], the “polymerase ribozyme fitness (log ratio)” value is ≤ -4.2.

Consider GGAUCUUCUCGAUCUAACAAAAAAGACAAAUCUGCCACAAAGCUUGAGAGCAUCUACGGAUGCAGAGGCGGCAGCCUUCGGUGGCGCGAUAGCGCCAACGUUCUCAACUAUGACACGCAAAACGUGUGCUCCGUUGAAUGGCGUUUAUCAUG [U56A C125U A142C], for which the “polymerase ribozyme fitness (log ratio)” value was -3.74.

On to GGAUCUUCUCGAUCUAACAAAAAAGACAAAUCUGCCACAAAGCUUGAGAGCAUCUACAGAUGCAGAGGCGGCAGCUUUCGGUGGCGCGAUAGCGCCAACGUUCUCAACUAUGACACGCAAAAUGGGUGCUCCGUUGAAUGGAAUUUAUCAUG [U56A G58A C76U C123U C125G G143A], for which the “polymerase ribozyme fitness (log ratio)” value is 0.457.

For the variant GGAUCUUCUCGAUCUAACAAAAAAGACAAAUCUGCCACAAAGCUUGAGAGCAUCUACGGAUGCAGAGGCGGCAGCCUUCGGUGGCGAGUUAGCGCUAACGUUCUCAACUAUGACACGCAAAACGCGUGCUCCUUUGAAUGGAGUUUAUCAUG [U56A C87A A89U C96U G133U], the “polymerase ribozyme fitness (log ratio)” value was ≤ -4.2.

With GGAUCUUCUCGAUCUAACAAAAAAGACAAAUCUGCCACAAAGCUUGAGAGCAUCUACGGAUGCAGAGGCGGCAGCCUUCGGUGGCGCGAUAGCGUCAUCGUUCUCAACUAUGACACGCAAAACGCGUGCUCCGUUGAAUGGAGUUUAUCAUG [U56A C95U A98U], the “polymerase ribozyme fitness (log ratio)” value was -1.6.

In the case of GGAUCUUCUCGAUCUAACAAAAAAGACAAAUCUGCCACAAAGCUUGAGAGCAUCGUCGGAUGCAGAGGCGGCAGCCUUCGGUGUCGCGAUAGCGCCACCGUUCUCAACUAUGACACGCAAAACGCGUGCUCCGUUGAAUGGAGUUUAUCACG [U55G G84U A98C U151C], the “polymerase ribozyme fitness (log ratio)” value was ≤ -4.2.

Consider GGAUCUUCUCGAUCUAACAAAAAAGACAAAUCUGCCACAAAGCUUGAGAGCAUCUACGGAUGCAGAGGCGGCAGCCUUCGGUGGCGCGAUUGCGCCAACGUUCUCAACUAUGACACGCAAAACGCGCGCUCCGUUGAAUGGAGUUUAUCAUG [U56A A91U U127C], for which the “polymerase ribozyme fitness (log ratio)” value is ≤ -4.2.

As for GGAUCUUCUCGAUCUAACAAAAAAGACAAAUCUGCCACAAAGCUUGAGAGCAUCUACGGAUGCAGAGGCGGCAGCCUUCGGUGGCGCGAUAGCGCCAACGUUCUCACUUAUGACACGCAAAACGCGUGCACCGUUGAAUGGAGUUUAUCAUG [U56A A107C C108U U130A], the “polymerase ribozyme fitness (log ratio)” value is ≤ -4.2.

GGAUCUUCUCGAUCUAACAAAAAAGACAAAUCUGCCACAAAGCUUGAGAGCAUCGUCGGAUGCAGAGGCGGCAGCCUUCGGGGGAGCGAUAGCGCCCACGUUCCCAACUAUGACACGCAAAACGCGUGCUCCGUUUAAUGGAGUUUAUCAUG [U55G U82G C85A A97C U104C G136U]: the “polymerase ribozyme fitness (log ratio)” value is -3.65.

GGAUCUUCUCGAUCUAACAAAAAAGACAAAUCUGCCACAAAGCUUGAGAGCAUCUACGGAUGCAGAGGCGGCAGCCUUCGGUGGCGAGAUAGCGCCAACGUUCUGAACUAUGACACGCAAAACGCGUCCUCCGUUGAAUGGAGUUUAUCAUG [U56A C87A C105G G128C]: the “polymerase ribozyme fitness (log ratio)” value was ≤ -4.2.

For GGAUCUUCUCGAUCUAACAAAAAAGACAAAUCUGCCACAAAGCUUGAGAGCAUCGUCGGAUGCAGAGGCGGCAGCCUUCGGUGGCGCGAUAGCGCCAACGUUCUCAACUAUGACACGCAAAACGCGUGCUCCGUUGAAUGGACUUUAUCAUG [U55G G143C], the “polymerase ribozyme fitness (log ratio)” value was -2.79.

Regarding GGAUCUUCUCGAUCUAACAAAAAAGACAAAUCUGCCACAAAGCUUGAGAGCAUCGUCGGAUGCAGAGGCGGCAGCCUUCGGUGGCGCGAUAGCGCCAACGUUCUCAACUAUGACACGCAAAACGCGUGCUCCGAUGAAAGGAGUUUAUCAUG [U55G U134A U139A], the “polymerase ribozyme fitness (log ratio)” value was ≤ -4.2.

Consider GGAUCUUCUCGAUCUAACAAAAAAGACAAAUCUGCCACAAAGCUUGAGAGCAUCUAGGGAUGCAGAGGCGGCAGCCUUCGGUGGCGAGAUAGCGCCAACGUUCUCAACUAUGACACGCGAAACGCAUGCUCCGUUGAAUGGAGUUUAUCAUG [U56A C57G C87A A119G G126A], for which the “polymerase ribozyme fitness (log ratio)” value is ≤ -4.2.
